# From PMC7819943, “Rice protein-binding microarrays: a tool to detect cis-acting elements near promoter regions in rice”
# The other results are listed elsewhere or left out.
# Target: T1, OsWOX13 (Oryza sativa, UniProt Q5QMM3 1-267)
# T1 sequence: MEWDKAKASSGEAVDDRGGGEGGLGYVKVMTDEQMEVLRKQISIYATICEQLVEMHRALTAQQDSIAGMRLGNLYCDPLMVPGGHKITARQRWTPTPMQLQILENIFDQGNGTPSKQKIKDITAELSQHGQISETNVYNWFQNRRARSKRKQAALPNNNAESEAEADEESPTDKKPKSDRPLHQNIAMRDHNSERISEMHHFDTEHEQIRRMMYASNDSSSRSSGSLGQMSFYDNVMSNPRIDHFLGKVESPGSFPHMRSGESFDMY
# Assay: protein-binding microarray (RPBM); PBS, 2% BSA, 51.3 ng/ul salmon testes DNA, 50 uM zinc acetate, 200 nM TF, 25 C, 1 h; high values mean tight binding
# Details: protein: recombinant; tags: N-terminal polyhistidine and DsRed monomer fusion (pET32a); label: CyDye5-dUTP incorporated in the synthesized complementary strand; 3' TTTTT single-stranded linker to array surface; dsDNA, one strand shown
# Procedure, shortened: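 Ni–NTA purification followed expression in E. coli BL21-CodonPlus of transcription factors fused N-terminally to a polyhistidine tag and DsRed. At 200 nM in PBS with 2% BSA, salmon testes DNA and 50 µM zinc acetate, the protein was incubated for 1 h at 25 °C with a custom Agilent array that had been primer-extended with Cy5-dUTP and blocked with 2% BSA. After washing, the array was read on an Axon 4000B scanner. The binding signal is per-feature fluorescence intensity in arbitrary units.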
row,Sequence,binding signal
1,CTCGCTTATCTATCAGTCTATCACTTTCCATGGAACTTCCCGGAGTCACCTAGTGCAG,4780 fluorescence intensity (a.u.)
2,GTAGTTAATTGTAAACACTGTACTAAGCAGTATACATTTTCGGAGTCACCTAGTGCAG,20300 fluorescence intensity (a.u.)
3,TATATATATATATATATATATATATATATATTTACTATATCGGAGTCACCTAGTGCAG,5070 fluorescence intensity (a.u.)
4,TCTGATAGGTATTTATAACTCTTGATTTGGCGGACACTTGCGGAGTCACCTAGTGCAG,42100 fluorescence intensity (a.u.)
5,AAATAATTTATACTCAATTAATCATGCGCTAATAGCTACTCGGAGTCACCTAGTGCAG,30700 fluorescence intensity (a.u.)
6,ATTTATAAATTGATTTGGAGCACAGATCGATACGTGCAGACGGAGTCACCTAGTGCAG,53400 fluorescence intensity (a.u.)
7,ATAACTTTTAATTTAAGCTAATTTTATTTCTGCCGGACATCGGAGTCACCTAGTGCAG,19600 fluorescence intensity (a.u.)
8,CAATGCCAGTGATAGATGAACTCTTGATGAGTTAGCTGGTCGGAGTCACCTAGTGCAG,4380 fluorescence intensity (a.u.)
9,AACCCATCAATTAAATATTTTATTTATTATGTAATATTTTCGGAGTCACCTAGTGCAG,18000 fluorescence intensity (a.u.)
10,GCTCTCAATTCAATCTCGCTTAATTCGATCGTCTTCTTCCCGGAGTCACCTAGTGCAG,4020 fluorescence intensity (a.u.)
11,ACAAATTATCTCCCAGCTCTTTTAGTAAAATACGAAACGACGGAGTCACCTAGTGCAG,4220 fluorescence intensity (a.u.)
12,GACAAATTAGTTGTTGACTTATCACACCCTACCCCATCTCCGGAGTCACCTAGTGCAG,11300 fluorescence intensity (a.u.)
13,AAATTTTGTTATGATTAGTATTTTCATTGCTATTAGATGACGGAGTCACCTAGTGCAG,8490 fluorescence intensity (a.u.)
14,ATGATTTACTATTAATCTAGTCTATTGCTGAGATATACATCGGAGTCACCTAGTGCAG,11000 fluorescence intensity (a.u.)
15,CAGCATTTCGTTTCTAATTGGCACGACACGTATATACATCCGGAGTCACCTAGTGCAG,7600 fluorescence intensity (a.u.)
16,CTTTAATTTAATTTAAGTCACTCCTCTAAACTTTGAGCTTCGGAGTCACCTAGTGCAG,50900 fluorescence intensity (a.u.)
17,ATAACATTCTATAGGTTGATTGATTTTGAAACAGAAAGTTCGGAGTCACCTAGTGCAG,22900 fluorescence intensity (a.u.)
18,TTAACTAATTTATCCTCCATTATATTTCTAACCTGACTGTCGGAGTCACCTAGTGCAG,23600 fluorescence intensity (a.u.)
19,GAGTGTATTAAATTGGTTAACGACATAGTTTTGTGAAACTCGGAGTCACCTAGTGCAG,4280 fluorescence intensity (a.u.)
20,AACATTTACGTAATTATAATTTATTTTGTTATGAGTTGTTCGGAGTCACCTAGTGCAG,22300 fluorescence intensity (a.u.)
21,CAATCCATCAATCATTTTCTTTACAATCTCTACAGTTAGACGGAGTCACCTAGTGCAG,16400 fluorescence intensity (a.u.)
22,AATTAGTTTAGCCAAATCAATAATTGAATATATTTTCATACGGAGTCACCTAGTGCAG,3630 fluorescence intensity (a.u.)
23,TGCATTAAAATATTTAATAATTTATATGTGTTTATGGTACCGGAGTCACCTAGTGCAG,6360 fluorescence intensity (a.u.)
24,TTGATTGTATGCCTTCTTTTGTGGGGAAATGAAGTTATGTCGGAGTCACCTAGTGCAG,14100 fluorescence intensity (a.u.)
25,CGTATGATTTACTTTGAGATACGTGTATGTGCCATTGAGTCGGAGTCACCTAGTGCAG,13600 fluorescence intensity (a.u.)
26,ATAATAATTAGTAGGAGTACCTACCAACCGTGGACTAGTACGGAGTCACCTAGTGCAG,16500 fluorescence intensity (a.u.)
27,ATTTGATAGAAAATTGAAGGTTAACATAAACATTTAAATGCGGAGTCACCTAGTGCAG,32400 fluorescence intensity (a.u.)

row,Sequence,binding signal
1,AAAGGAATCAATCATAATATGGTTGGCTCAACGTAGCAAGCGGAGTCACCTAGTGCAG,10200 fluorescence intensity (a.u.)
2,ATACTCTAAATTAGTGTTTAAAGACAGGGAGACAGGGACTCGGAGTCACCTAGTGCAG,12900 fluorescence intensity (a.u.)
3,TAAGCCTAATTAGTCTATGATTAGCCATAAGTGCTACAGTCGGAGTCACCTAGTGCAG,37800 fluorescence intensity (a.u.)
4,TGTGATTGACCGAGAAGAGAATAATGGTGGAGTTATTATGCGGAGTCACCTAGTGCAG,32600 fluorescence intensity (a.u.)
5,TAACATAGATTTGACTAAACTTTACCGGGTTTAATATTAACGGAGTCACCTAGTGCAG,3300 fluorescence intensity (a.u.)
6,TGATAACCAATTCCCAGATGATTATTGTTATCCTCTCCTCCGGAGTCACCTAGTGCAG,5840 fluorescence intensity (a.u.)
7,GTTGATGTGATAGAAAAGGACTGAAGTTTGGATCCAAAATCGGAGTCACCTAGTGCAG,8120 fluorescence intensity (a.u.)
8,AGATTAATTCCTGCCTAATTTTGTTCTGAACTTCAGTTTACGGAGTCACCTAGTGCAG,8280 fluorescence intensity (a.u.)
9,GATGGAAATTTGTGTGATGAACGGAACGGAGTGTGTACAGCGGAGTCACCTAGTGCAG,5730 fluorescence intensity (a.u.)
10,TAAAATTAGAATTACAGAGAAACCAAGCTTCCGTTGTAGTCGGAGTCACCTAGTGCAG,14800 fluorescence intensity (a.u.)
11,ACAAACTTCATTAACTACTGAATTAGTGCGTTTCATCTCACGGAGTCACCTAGTGCAG,3650 fluorescence intensity (a.u.)
12,AAAACTGCTCACTTTCCGCTAATTATGACTTAATTTAAGGCGGAGTCACCTAGTGCAG,16600 fluorescence intensity (a.u.)
13,TTTCTTAAATTGAACAAATAATTAATTGTGAAAAGAGAGGCGGAGTCACCTAGTGCAG,30800 fluorescence intensity (a.u.)
14,TTCTTTGATTTCACCTACAGGATTGCAAGGAGGCAACTCCCGGAGTCACCTAGTGCAG,3270 fluorescence intensity (a.u.)
15,CGCAATCATAGTAATATTATATTTTGATGTAATTTACAAACGGAGTCACCTAGTGCAG,3930 fluorescence intensity (a.u.)
16,GCCATATGATAATTTGCTTTTCTACCATACTAACGTAGGTCGGAGTCACCTAGTGCAG,4420 fluorescence intensity (a.u.)
17,GGAATTATATTACAATTATACTACACTTAGATTTTGAAAGCGGAGTCACCTAGTGCAG,4640 fluorescence intensity (a.u.)
18,CTGGCGAGGGTGCTCGGTGGCCGATCCCTGCGTACGACGACGGAGTCACCTAGTGCAG,7490 fluorescence intensity (a.u.)
19,CGTTGTGATTTATGAACAGCTCCTGCCAGAAACCAGAGTTCGGAGTCACCTAGTGCAG,17000 fluorescence intensity (a.u.)
20,ATTTAGATTTAATCACACATCAGTCTGCCATTGTTACTACCGGAGTCACCTAGTGCAG,15600 fluorescence intensity (a.u.)
21,CAACAATTTACATTGAATTTGATTGACAAAGGTATACGATCGGAGTCACCTAGTGCAG,32600 fluorescence intensity (a.u.)
22,TTTGACTGAGGTTTAGACTAGAGCTGTACTAAACATGCCCCGGAGTCACCTAGTGCAG,31300 fluorescence intensity (a.u.)
23,ACACACAATTAGATTAGACATGCTTGGACTGATGACTTAGCGGAGTCACCTAGTGCAG,26100 fluorescence intensity (a.u.)
24,ACCACATAAATTTCTCTCTAATGCGAACATTCAAATGTGACGGAGTCACCTAGTGCAG,3260 fluorescence intensity (a.u.)
25,AAACAAAATGATTTGTATATGAAACGGAGGGAGTAATAAGCGGAGTCACCTAGTGCAG,9570 fluorescence intensity (a.u.)
26,TAATTTTAATTAATTCTAAATTGTATATTTGTATAGACTCCGGAGTCACCTAGTGCAG,9440 fluorescence intensity (a.u.)
27,CACAATCTAATCAAGCTTCATCCGAGGCAGATCTCCACACCGGAGTCACCTAGTGCAG,7440 fluorescence intensity (a.u.)
